± gives the standard deviation of the averaged measurements. This is one part of the list.

This assay has as its system PfAP2-I AP2 domain 3 (GST-tagged). Nature of the assay: gcPBM binding intensity (ln(normalized median fluorescence intensity)); higher = stronger DNA binding. Summed up:
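Plasmodium falciparum DNA-binding domains carrying a GST tag were expressed in E. coli and applied for 1 h, at about 25 μg on average, to an Agilent 4 × 180k array. The array held primer-extended double-stranded 36-bp intergenic genomic probes together with negative controls, and binding took place in 1× PBS with 1% milk, 0.2 mg/ml BSA, 0.5% salmon testes DNA and 0.03% Triton X-100. An Alexa488 anti-GST antibody detected bound protein, and the array was scanned at 488 nm. Binding intensity is taken as the highest Masliner-normalised natural-log median intensity across replicate spots of either probe orientation.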
In the case of “TGTTATATATGTAATTGTACACTTATACAAAATTAT [XGTACX_site6350]”, the “gcPBM binding intensity (ln)” value worked out at 7.85 ± 0.38.
Consider “TTTTTTAATTAGTACAAACACACATATACAGACAAA [CACACA_site2564]”, for which the “gcPBM binding intensity (ln)” value was found to be 8.38 ± 0.28.
Then “AAAAAAATTAGACACACACACACATATAAATATGTA [CACACA_site6618]”, with 7.57 ± 0.54.
Then “ATTTAGAATGCGTATACACACATATATAGATTTGCT [CACACA_site626]”, with 7.64 ± 0.64; and “TCAACACACGTGGAATGTACTTTAGTATAAGAATTC [XGTACX_site7842]”, with 7.74 ± 0.64; and “TAAATATATTTCATGACATGCAACTTGTTTTTTTGT [TGCATGCA_site456]”, with 7.63 ± 0.7.
On to “ATAAAAAAAAGACACACACACATATATATATATATA [CACACA_site3073]”, for which the “gcPBM binding intensity (ln)” value turned out to be 9.44 ± 0.26.
Turning to “TCTTTTACAAAAGCTATAACATTCACCACATTATAA [GTGCAC_negctrl_site133]”, the “gcPBM binding intensity (ln)” value was 7.68 ± 0.65.
With “TATATATATATATAAACACACATAAATATAAATATA [CACACA_site1121]” the figure was 9.09 ± 0.3; with ATAATATATACGTGTGTGCACATGACAAAAGCATAT, 9.59 ± 0.69.
Consider “GTTAATGTGGTTACTTGTACATATTAACGTCTTTTT [XGTACX_site2617]”, for which the “gcPBM binding intensity (ln)” value is 7.77 ± 0.42.
“AAAAAAAAAATATACACACACATATATATATATATA [CACACA_site3404]”: the “gcPBM binding intensity (ln)” value is 9.36 ± 0.24.
With “ATATATATATTTTATGCATGTTCATTTTCTATATTT [TGCATGCA_site442]”, the “gcPBM binding intensity (ln)” value was determined as 8.96 ± 0.2.
Take “TTTCTTACAACAACAACAAAAAAAAATAAATAAAAT [GTGCAC_negctrl_site711]”: the “gcPBM binding intensity (ln)” value amounted to 7.83 ± 0.67.
Then “ATATTTTATATTTCTTGTACATATATTTGTAGATAT [XGTACX_site1140]”, with 7.75 ± 0.47; and “TATTATTTTTTTATTCTATTAAAAAGAAAAAAATGA [CACACA_negctrl_site407]”, with 7.5 ± 0.11; and “AATTTATTTTTAAAAAGTACATACTTAAGAAAACGA [XGTACX_site3660]”, with 8.12 ± 0.29.
Then “GATTCATTTCATAATACACACAACAAATATTTCAAA [CACACA_site120]”, with 8.04 ± 0.29.
“TCGACAATTTTATAAAGTACTTATTAGAAATATGAA [XGTACX_site7133]”: the “gcPBM binding intensity (ln)” value was 7.6 ± 0.26.
For “CCATTTAAAACATTTTGTACTTATTTTACATTTCTG [XGTACX_site4270]”, the “gcPBM binding intensity (ln)” value stood at 7.88 ± 0.59.
On to “AAACAAATAAAATTTATTAAAAAGGTCATATTATTA [CACACA_negctrl_site85]”, for which the “gcPBM binding intensity (ln)” value came to 7.26 ± 0.44.
With “AGAAAAAAAAATTATACATGCATATACGTTTATTTT [TGCATGCA_site529]” the figure was 7.64 ± 0.83; with “TATTAATAAATTTATAAAACAGGTATATATATATAT [CACACA_negctrl_site615]”, 9.3 ± 0.48.
For “ATATATATATATATATGTACACACATCAATCATATT [XGTACX_site4005]”, the “gcPBM binding intensity (ln)” value was 9.49 ± 0.34.
For the sequence “AGAGTACAAGTAAATACACACATATAGATGAAAATA [CACACA_site6635]”, the “gcPBM binding intensity (ln)” value was 7.93 ± 0.72.
For “AAGAAAACTTAAAATAAAAGCATATTTTATCTTACA [TGCATGCA_negctrl_site366]”, the “gcPBM binding intensity (ln)” value was 7.25 ± 0.36.
Turning to “TGCAGTCTGGAGAAGAGTACATAGTATCTGGTAGCT [XGTACX_site2021]”, the “gcPBM binding intensity (ln)” value was 7.71 ± 0.9.
For “ATGTATATGATTAAATGTACGTAAACAAATTTGTAA [XGTACX_site8174]”, the “gcPBM binding intensity (ln)” value was determined as 7.96 ± 0.42.
“ACCACATAAAACAAATGTACTTGAAATATATGCGTA [XGTACX_site5155]”: the “gcPBM binding intensity (ln)” value is 7.59 ± 0.43.
“CAAAGGGAAATTAACACACACATATTTATATTTATA [CACACA_site7202]”: the “gcPBM binding intensity (ln)” value came to 7.63 ± 0.49.
On to “AAAAAAAAAAAAAACACACACATACAGACAAAAATG [CACACA_site83]”, for which the “gcPBM binding intensity (ln)” value amounted to 8.34 ± 0.61.
For the sequence CTAAATTATAGATCAGTGCAATTTAATATGAGTCCA, the “gcPBM binding intensity (ln)” value was 8.91 ± 0.22.
“TTGTAATTATTAAACACACACAAAATATATATAATA [CACACA_site2523]”: the “gcPBM binding intensity (ln)” value turned out to be 7.84 ± 0.52.
Turning to “AGGTGAGCTCAGACTACACACACAAAGAAAAAAATA [CACACA_site8439]”, the “gcPBM binding intensity (ln)” value amounted to 7.7 ± 0.53.
On to “CCATAAAAATATAATACACACATATATATTAACATA [CACACA_site4102]”, for which the “gcPBM binding intensity (ln)” value is 7.75 ± 0.35.
Then “TATATATGTATCAAGTGTACAGTTTTAAAAAAAAAA [XGTACX_site6011]”, with 8.06 ± 0.61; and “GAACATTTGAAATATGCACACATGTATAAACATACA [CACACA_site5463]”, with 8.85 ± 0.13; and ACACACAATACAAAAGTGCATATAATAATTAATCAT, with 9.945 ± 0.064.
On to “TGTTTTTAAAAAAAAAAAAAATCACACCGGCAGGTA [CACACA_negctrl_site1437]”, for which the “gcPBM binding intensity (ln)” value was 7.62 ± 0.66.
On to “TGCGTATATATATACACACACATATATATATTTTAA [CACACA_site1952]”, for which the “gcPBM binding intensity (ln)” value is 7.64 ± 0.42.
“TATTTCATTAATGTCACTTTGAAAGAAATGAAAAAA [CACACA_negctrl_site1803]”: the “gcPBM binding intensity (ln)” value came out at 7.7 ± 0.5.
With “AAAAAAAAAAGACACACACACAAAATAAACAAACAA [CACACA_site7308]” the figure was 7.95 ± 0.49.
With “CATATTATTCTTTTCACACACGCGTTAATAATAATC [CACACA_site3931]” the figure was 8.4 ± 0.62; with TATTGACATATATTAGTGCAATAATGAAATCAAGTA, 10.9 ± 0.43.

The values are drawn from the supplement of paper PMC11417369.
